Reference: PubChem BioAssay AID488969 (Vanderbilt High Throughput Screening Facility, 2010)
Whole data set: some 110,000 compounds, median “z-score” near -0.1, cut for the highest 2% near 2. The list shows a part of the results. Active and inactive are the calls of the source.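 Rule for the calls: active = z-score in the third read window above 3 or below -3; inactive = the rest.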

target: Metabotropic glutamate receptor 8 (Rattus norvegicus) (UniProt P70579); assay: mGluR8 Gi/Go-coupled signaling modulation – cell-based, rat, thallium flux, HTS, primary screen (AID 488969); conditions: HEK293 rat mGluR8, GIRK (G protein-gated inwardly rectifying potassium channel) thallium flux, FluoZin2; at 10 µM; stronger effect = higher value; submaximal glutamate (EC20) added with thallium
Chain of UniProt P70579 (P70579 whole entry, looked up): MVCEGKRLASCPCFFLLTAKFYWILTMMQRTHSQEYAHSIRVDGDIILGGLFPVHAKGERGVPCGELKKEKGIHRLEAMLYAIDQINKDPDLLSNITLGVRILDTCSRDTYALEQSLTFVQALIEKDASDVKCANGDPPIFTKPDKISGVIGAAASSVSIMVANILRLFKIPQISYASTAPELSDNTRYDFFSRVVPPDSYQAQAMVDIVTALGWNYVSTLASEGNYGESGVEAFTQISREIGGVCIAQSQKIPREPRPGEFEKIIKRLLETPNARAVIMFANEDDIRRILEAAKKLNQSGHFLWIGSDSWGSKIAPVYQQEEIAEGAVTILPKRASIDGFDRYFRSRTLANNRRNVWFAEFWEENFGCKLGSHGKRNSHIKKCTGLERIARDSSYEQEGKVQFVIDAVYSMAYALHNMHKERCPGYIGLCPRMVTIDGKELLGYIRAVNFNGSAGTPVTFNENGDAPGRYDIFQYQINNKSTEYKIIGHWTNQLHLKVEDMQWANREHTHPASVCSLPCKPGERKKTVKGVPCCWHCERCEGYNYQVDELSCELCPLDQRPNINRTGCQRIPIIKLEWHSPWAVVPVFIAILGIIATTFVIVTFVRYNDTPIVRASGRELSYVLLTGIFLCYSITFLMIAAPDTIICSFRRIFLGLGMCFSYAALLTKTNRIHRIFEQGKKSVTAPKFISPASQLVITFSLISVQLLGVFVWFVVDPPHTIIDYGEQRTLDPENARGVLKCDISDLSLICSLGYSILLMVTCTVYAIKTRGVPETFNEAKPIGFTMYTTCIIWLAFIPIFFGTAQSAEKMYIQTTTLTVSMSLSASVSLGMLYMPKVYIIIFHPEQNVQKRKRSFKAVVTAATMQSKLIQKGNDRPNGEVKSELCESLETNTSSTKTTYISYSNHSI

Row | SMILES | z-score
1 | CCCOC(=O)c1cc(=O)[nH]c2ccccc12 | -0.0144
2 | Cc1ccc(C)c(NC(=O)C2CC(Cl)=CCC2C(=O)O)c1 (stereo not drawn) | -0.773
3 | N#Cc1c(NC(=O)c2ccc(-c3ccccc3[N+](=O)[O-])o2)sc2c1CCCC2 | -0.247
4 | Cc1ccc(COc2coc(CO)cc2=O)cc1 | -0.0138
5 | Cc1ccc(S(=O)(=O)Nc2c(C)ccc3nsnc23)cc1 | 0.21
6 | CCOCCn1c(SC)nc2c1c(=O)[nH]c(=O)n2C | 0.161
7 | Cn1c(=O)[nH]c(=O)c2c1nc(N1CCNCC1)n2CCOc1ccccc1 | -0.176
8 | CCOC(=O)C(C(=O)Nc1ccccc1C)C1CCCCC1 (stereo not drawn) | -0.631
9 | S=c1[nH]nc(C2CC2c2ccc(Cl)cc2)n1-c1ccc(Cl)cc1 (stereo not drawn) | 0.549
10 | COC(=O)Cn1c(C)c(C#N)c2ccccc21 | -0.127
11 | O=C(O)c1ccccc1C(=O)Nc1ccccc1 | -0.0814
12 | O=[N+]([O-])c1cc(Cl)cc(/C=N\Nc2ccccn2)c1O | -0.349
13 | CCCC(C)C(=O)Nc1nc(C)c(-c2csc(Nc3ccc(Cl)cc3)n2)s1 (stereo not drawn) | 0.225
14 | Cc1ccsc1/C=C1/SC(N2CC(C)OC(C)C2)=NC1=O (stereo not drawn) | -0.238
15 | CCCCN(C)CCCNC(=O)c1ccc2c(c1)NC(=O)C(N1CCOCC1)S2 (stereo not drawn) | 0.264
16 | O=C(NCC1CCCO1)c1ccc(/C=N/O)nc1 (stereo not drawn) | -0.978
17 | Cc1ccccc1-n1ncc2c(SCC(=O)N3c4ccccc4CC3C)ncnc21 (stereo not drawn) | -0.217
18 | Oc1ccc(Cl)cc1-c1cc(-c2ccccc2Cl)[nH]n1 | 0.0076
19 | CCC(=O)Nc1cccc(-c2cn3ccccc3n2)c1 | 0.0803
20 | Cc1cc(N2CCOCC2)nc(-c2ccc([N+](=O)[O-])cc2)n1 | 1.09
21 | CCOc1ccc(N(CC(=O)Nc2ccccc2C(=O)NCc2ccco2)S(C)(=O)=O)cc1 | -0.34
22 | CSC1=NCCN1C(=O)C(C)(C)Oc1ccc(Cl)cc1 | -0.0535
23 | COC(=O)c1ccc(NC(=O)CSc2nnc(COc3c(C)cccc3C)o2)cc1 | -0.0223

Row | SMILES | z-score
24 | COc1cccc(-n2c(CN3CCN(c4ccc(C)cc4)C(C)C3)nc3ccc([N+](=O)[O-])cc3c2=O)c1 (stereo not drawn) | -0.234
25 | O=C(NCc1ccco1)c1ccc(COc2ccc(Cl)cc2)cc1 | 0.107
26 | COc1ccc(Cc2ccc(OC)c(N)c2)cc1N | -0.182
27 | Cc1ccc(CNC(=O)c2nc3nc(C)cc(C)n3n2)cc1 | -0.588
28 | CCN1C(c2ccc(F)cc2)=CS/C1=C(\C#N)c1nnc2n1-c1ccccc1SC2 | -0.761
29 | CCS(=O)(=O)N1CCN(Cc2ccccc2OC)CC1 | 0.515
30 | CN(C)C(CNC(=O)NC1CCCCC1)c1cccnc1 (stereo not drawn) | 0.105
31 | CCCNC(=O)OCC12CC3CC(CC(C3)C1)C2 | -0.131
32 | O=C(Nc1ccc([N+](=O)[O-])cc1)C1C(c2ccccc2)=C1c1ccccc1 | -0.135
33 | COC(=O)c1ccc(-n2c(C)ccc2-c2ccccc2)cc1 | -0.0816
34 | CC(C)(C)n1nnnc1C(c1cccc(C#N)c1)N1CCC(Cc2ccccc2)CC1 (stereo not drawn) | -0.214
35 | C/C(=N\NC(=O)c1ccc(Cl)cc1)c1cccc(NC(=O)C(C)C)c1 | -0.00381
36 | Cc1ccc(O)c(N=Cc2cccs2)c1 | -0.0333
37 | Cc1cccc(CC2S/C(=N/c3ccccn3)NC2=O)c1 (stereo not drawn) | -0.0779
38 | c1ccc(-n2c(SCc3nc(-c4cccs4)no3)nnc2-c2ccco2)cc1 | -1.55
39 | CCc1c(O)nc2ccccn2c1=O | -0.0798
40 | Cc1nnc(SCC(=O)Nc2nc3c(s2)CC(C)CC3)s1 (stereo not drawn) | 0.0116
41 | O=C(CSc1nnc(-c2ccco2)n1-c1ccccc1)N1CCOCC1 | -0.0477
42 | O=C(O)Cn1c(C(F)(F)F)nc2ccccc21 | -0.399
43 | COc1cc(NC(=O)CSc2ncnc3c2cnn3Cc2ccccc2)cc(OC)c1 | -0.493
44 | CC1=NN(c2ccc(Cl)cc2)C(=O)C1C(c1ccccc1O)c1c(C)[nH]n(-c2ccc(Cl)cc2)c1=O (stereo not drawn) | -0.5
45 | CC1CCN(S(=O)(=O)c2ccc(NC(=O)N3c4ccccc4Sc4ccccc43)cc2)CC1 | -1.05
46 | Cc1ccc2[nH]c(O)c(N=NC(=O)C3CC3c3ccccc3)c2c1Br (stereo not drawn) | -0.417

Row | SMILES | z-score
47 | COc1ccccc1NC(=O)CN1CCCCC1 | 0.635
48 | O=C(c1cccc(S(=O)(=O)N2CCCCC2)c1)N1CCc2ccccc21 | -0.782
49 | O=C(OCc1nnc(-c2ccccc2)o1)c1ccc2c(c1)C(=O)N(CCc1ccccc1)C2=O | -0.481
50 | O=C(Nc1ccc(Cl)cc1)OCc1cc(-c2ccccc2)on1 | -0.197
51 | COc1cc(/C=C/C(=O)c2ccc(O)cc2)ccc1OCC#N | 0.0445
52 | CC(C)CC(=O)Nc1ccc2oc(-c3ccncc3)nc2c1 | -0.0096
53 | Cc1cc(C(=O)COC(=O)CNC(=O)c2ccco2)c(C)n1Cc1ccco1 | -0.202
54 | CCOc1ccccc1N=c1oc2cc(O)ccc2cc1C(=O)NCC1CCCO1 (stereo not drawn) | 0.205
55 | CCOC(=O)c1c(C)[nH]c(C)c1C(=O)CSc1nnnn1-c1ccccc1 | -1.04
56 | Cc1ccsc1-c1nc(CSCC(=O)N2CCN(c3ccccc3)CC2)c(C)o1 | -0.547
57 | CC(=O)NCC(=O)OCC(=O)c1ccccc1 | 0.372
58 | OCCN(CCO)Cc1ccc(Br)cc1 | 0.026
59 | O=C(NCCCn1ccnc1)c1ccc2c(c1)OCCO2 | 0.0722
60 | CCCSc1nc(SCC(=O)NCc2ccccc2)c2c3c(sc2n1)COC(C)(CC)C3 (stereo not drawn) | -0.215
61 | O=C(CSCc1ccccc1)N=Nc1c(O)[nH]c2ccccc12 | active: 6.08
62 | COc1ccc(/C=N\NC(=O)CNC(=O)C(c2ccccc2)c2ccccc2)cc1[N+](=O)[O-] | -0.12
63 | CCOC(=O)c1ccc(N2CSC3=C(C#N)C(c4ccc(OC)cc4OC)CC(=O)N3C2)cc1 (stereo not drawn) | -0.467
64 | COc1ccccc1NS(=O)(=O)c1cc(NC(=O)Nc2cccc(C)c2)ccc1N1CCCCC1 | -0.24
65 | COc1ccc(NS(=O)(=O)c2c(C)n(C)c(=O)n(C)c2=O)cc1OC | -0.0428
66 | COc1ccc(CCN2C(=O)c3cccnc3C2=O)cc1OC | 0.487
67 | Cn1c(=O)c2c(nc(SCCN3CCCCC3)n2C)n(C)c1=O | -0.15
68 | Cc1csc(NC(=O)c2ccc3c(=O)n4c(nc3c2)CCCCC4)n1 | -0.227
69 | CCOC(=O)c1c(NC(=O)N/N=C/c2ccccc2OCC)sc(C(C)=O)c1C | 0.0659

Row | SMILES | z-score
70 | Cc1cc(NC(=O)CCOc2ccccc2)no1 | 0.484
71 | CCN(CC)C(=O)c1ccc(C)c(Br)c1 | -0.37
72 | CCc1nc2sc3c(c2c(=O)o1)CCCC3 | 0.544
73 | c1ccc2c(c1)ncn2CCCOc1ccc2c(c1)CCC2 | -0.337
74 | CC(C)NS(=O)(=O)c1ccc(OCC(=O)N2CCCC2)c(Cl)c1 | -0.142
75 | CCn1c(CCNC(=O)c2cccs2)nnc1SCC(=O)c1ccc(OC)cc1 | -0.211
76 | Cc1ccc(SCc2cc(=O)[nH]c(N3CCN(C)CC3)n2)cc1 | 0.0023
77 | N#C/C(=C/c1ccc(-c2ccc(C(=O)O)c(Cl)c2)o1)C(=O)NCC1CCCO1 (stereo not drawn) | 0.533
78 | CN(C=C1C(=O)CC(C)(C)CC1=O)CCN1CCNCC1 | 0.255
79 | O=C(COc1ccccc1)Nc1ncc2c(n1)CCCC2=O | -0.118
80 | COc1ccc(C2=NOC(C(=O)Nc3c(C)n(C)n(-c4ccccc4)c3=O)C2)cc1 (stereo not drawn) | -0.27
81 | CC1CN(C(=O)CN2C(=O)c3ccccc3S2(=O)=O)CC(C)O1 (stereo not drawn) | 0.257
82 | CC(NCc1ccc(N(C)C)cc1)C1CC2CCC1C2 (stereo not drawn) | 0.634
83 | CCOc1c2ccc(C(=O)NCCCCc3ccccc3)cc2nn1CC | -0.333
84 | Cc1nc(NC(=O)/C=C/c2ccc(F)cc2)sc1C(=O)N(C)C | -0.464
85 | O=C(Nc1ccc(N2CCN(C(=O)c3ccc(Cl)cc3)CC2)cc1)c1ccc(Br)o1 | -0.401
86 | CCc1[nH]c(=O)c(C#N)c2c1CSC(C)(C)C2 | -0.436
87 | NS(=O)(=O)c1ccc(N/N=C2/CCCCC2C2CCCCC2)c([N+](=O)[O-])c1 (stereo not drawn) | -0.414
88 | CC(=O)c1sc(N)c(C(=O)OC(C)C)c1C | -0.043
89 | COC(=O)C(C(=O)OC)=C(/C=C/N(C)C)N(C)C | 0.0749
90 | O=C(Nc1nnc(COc2ccc(Cl)cc2)s1)c1cccs1 | 0.129
91 | O=C(Cn1c(CC(=O)N2CCOCC2)nc2ccccc21)Nc1ccc2c(c1)OC(F)(F)O2 | 1.15
92 | O=C(O)CC(C(=O)NC1CCCCC1)C1CCCO1 (stereo not drawn) | 0.524

Row | SMILES | z-score
93 | CC(=O)Nc1ccc(NC(=O)C(C)OC(=O)C2CC3C=CC2C3)cc1 (stereo not drawn) | -0.216
94 | O=S(=O)(Nc1cc(Cl)ccc1N1CCCCC1)c1cccs1 | active: 7.03
95 | CC(=O)Nc1ccc(S(=O)(=O)N=S(C)(C)=O)cc1 | 0.711
96 | O=C(CSc1nnc(Cc2cc(=O)[nH]c(=O)[nH]2)n1-c1ccccc1)N1CCCC1 | 0.301
97 | CCOC(=O)c1cc(C(=O)OCC)cc(-n2c(C)cc(C(=O)CN3CCOCC3)c2C)c1 | -1.47
98 | O=C(NNc1cccc(Cl)n1)c1cccnc1Cl | -0.00142
99 | CCc1ccc(NC(=O)c2noc3c2CCc2ccccc2-3)cc1 | 0.0778
100 | CC1C2=C(CCCC2=O)N(c2cccc3ccccc23)C2=C1C(=O)CCC2 | -0.482
101 | O=S(=O)(c1cccs1)N1CCN(C/C=C/c2ccccc2)CC1 | -0.24
102 | CC(C)CCNC(=O)CC1Nc2c3ccccc3nc(=S)n2C1=O (stereo not drawn) | 0.212
103 | O=C(Cc1cccs1)Nc1nnc(SCc2ccc(Br)cc2)s1 | 0.299
104 | Cc1ccc(N2C(=O)C3C(c4ccccc4)N4CCCN4C3(C)C2=O)cc1 (stereo not drawn) | -0.0168
105 | CC(C)(C)c1csc(NC2=NS(=O)(=O)c3ccccc32)n1 | 0.285
106 | O=C(COc1ccccc1Cl)Nc1cnn(Cc2ccccc2)c1 | 1.06
107 | Cc1cccc(NC(=O)c2cccs2)n1 | 0.965
108 | Cc1ccc(Nc2cc(C)nc3ncnn23)c(Cl)c1 | -0.106
109 | CCOC(=O)C1CCCN(C(=O)CCn2nc(-c3ccccc3)ccc2=O)C1 (stereo not drawn) | 1.49
110 | COc1ccc2[nH]c(=O)c(CN(Cc3ccc4c(c3)OCO4)C(C)=O)cc2c1 | 0.313
111 | O=C(NCCOc1ccccc1)c1cncc(Br)c1 | 0.491
112 | CCC(=O)NCCc1nc2cc(NC(=O)c3ccc(OC)cc3)ccc2n1C | -0.0389
113 | CCOc1ccccc1Nc1ncccc1C(=O)O | 0.109
